The supplement of paper PMC12217912
Some of the results follow. The full chains were built here from the parent and the listed change. Values near 0.05 are background.

B1: TEV protease; numbered along this chain (parent)
chain: MGESLFKGPRDYNPISSSICHLTNESDGHTTSLYGIGFGPFIITNKHLFRRNNGTLVVQSLHGVFKVKDTTTLQQHLVDGRDMIIIRMPKDFPPFPQKLKFREPQREERICLVTTNFQTKSMSSMVSDTSCTFPSGDGIFWKHWIQTKDGQCGSPLVSTRDGFIVGIHSASNFTNTNNYFTSVPKNFMELLTNQEAQQWVSGWRLNADSVLWGGHKVFMVKPEEPFQPVKEATQL

Variants of: B1
Assay: raw area under fraction-flipped curve 0-4 h after induction (AUC4h, not background-subtracted), DNA-recorder readout of cleavage of the substrate (dimensionless); higher = more cleavage of the substrate by the protease variant
Conditions: temperature: 34 °C; time window: 0-4 h after rhamnose induction
Procedure: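 In vivo DNA recorder in E. coli TOP10(DE3) ΔrhaA at 34 °C. Each TEVp single-site mutant (parent TEVp 0) is paired with a single-site variant of the 7-mer TEVs (canonical ENLYFQ|S). The substrate sits between flexible linkers in a Bxb1-sfGFP-TEVs-SsrA fusion, so cleavage stabilises Bxb1 and speeds flipping of a recombination array, read by NGS. The value is the raw area under the fraction-flipped curve over 0-4 h after rhamnose induction (AUC4h), with ≥20 reads per time point. It is not background-subtracted; inactive controls average about 0.047.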
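Also: Bxb1 expression induced with 0.2% (w/v) L-rhamnose at OD600 near 0.5, cultures sampled hourly, flipped fraction per protease–substrate barcode pair counted by paired-end Illumina sequencing.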

Row | Variant | area with substrate ENLYFQA | area with substrate ENLYFQC | area with substrate ENLYFQE | area with substrate ENLYFQH | area with substrate ENLYFQK | area with substrate ENLYFQM | area with substrate ENLYFQP | area with substrate ENLYFQR | area with substrate ENLYFQS | area with substrate ENLYFQT
1 | MGESLFKGPRDYNPISSSICHLTNESDGHTTSLYGIGFGPFIITNKHLFRRNNGTLVVQSLHGVFKVKDTTTLQQHLVDGRDMIIIRMPKDFPPFPQKLKFREPQREERICLVTTNFQAKSMSSMVSDTSCTFPSGDGIFWKHWIQTKDGQCGSPLVSTRDGFIVGIHSASNFTNTNNYFTSVPKNFMELLTNQEAQQWVSGWRLNADSVLWGGHKVFMVKPEEPFQPVKEATQL [T119A] | 0.0885 | 0.138 | 0.0626 | 0.0724 | 0.0463 | 0.11 | 0.0586 | 0.0641 | 0.102 | 0.0729
2 | MGESLFKGPRDYNPISSSICHLTNESDGHTTSLYGIGFGPFIITNKHLFRRNNGTLVVQSLHGVFKVKDTTTLQQHLVDGRDMIIIRMPKDFPPFPQKLKFREPQREERICLVTTNFQQKSMSSMVSDTSCTFPSGDGIFWKHWIQTKDGQCGSPLVSTRDGFIVGIHSASNFTNTNNYFTSVPKNFMELLTNQEAQQWVSGWRLNADSVLWGGHKVFMVKPEEPFQPVKEATQL [T119Q] | 0.122 | 0.0257 |  |  |  |  |  | 0.0435 | 0.135 | 
3 | MGESLFKGPRDYNPISSSICHLTNESDGHTTSLYGIGFGPFIITNKHLFRRNNGTLVVQSLHGVFKVKDTTTLQQHLVDGRDMIIIRMPKDFPPFPQKLKFREPQREERICLVTTNFQSKSMSSMVSDTSCTFPSGDGIFWKHWIQTKDGQCGSPLVSTRDGFIVGIHSASNFTNTNNYFTSVPKNFMELLTNQEAQQWVSGWRLNADSVLWGGHKVFMVKPEEPFQPVKEATQL [T119S] | 0.0885 | 0.111 |  |  |  |  |  | 0.0639 | 0.104 | 0.0604
4 | MGESLFKGPRDYNPISSSICHLTNESDGHTTSLYGIGFGPFIITNKHLFRRNNGTLVVQSLHGVFKVKDTTTLQQHLVDGRDMIIIRMPKDFPPFPQKLKFREPQREERICLVTTNFQTKSMSSMVSDKSCTFPSGDGIFWKHWIQTKDGQCGSPLVSTRDGFIVGIHSASNFTNTNNYFTSVPKNFMELLTNQEAQQWVSGWRLNADSVLWGGHKVFMVKPEEPFQPVKEATQL [T129K] | 0.101 | 0.109 |  |  | 0.0417 |  |  | 0.0406 | 0.092 | 0.0533
5 | MGESLFKGPRDYNPISSSICHLTNESDGHTTSLYGIGFGPFIITNKHLFRRNNGTLVVQSLHGVFKVKDTTTLQQHLVDGRDMIIIRMPKDFPPFPQKLKFREPQREERICLVTTNFQTKSMSSMVSDTSCTFRSGDGIFWKHWIQTKDGQCGSPLVSTRDGFIVGIHSASNFTNTNNYFTSVPKNFMELLTNQEAQQWVSGWRLNADSVLWGGHKVFMVKPEEPFQPVKEATQL [P134R] | 0.0859 | 0.0993 |  | 0.0336 | 0.0583 |  |  | 0.0629 | 0.089 | 0.069
6 | MGESLFKGPRDYNPISSSICHLTNESDGHTTSLYGIGFGPFIITNKHLFRRNNGTLVVQSLHGVFKVKDTTTLQQHLVDGRDMIIIRMPKDFPPFPQKLKFREPQREERICLVTTNFQTKSMSSMVSDTSCTFPHGDGIFWKHWIQTKDGQCGSPLVSTRDGFIVGIHSASNFTNTNNYFTSVPKNFMELLTNQEAQQWVSGWRLNADSVLWGGHKVFMVKPEEPFQPVKEATQL [S135H] | 0.0622 | 0.0632 |  | 0.0666 |  | 0.0493 |  |  | 0.0663 | 
7 | MGESLFKGPRDYNPISSSICHLTNESDGHTTSLYGIGFGPFIITNKHLFRRNNGTLVVQSLHGVFKVKDTTTLQQHLVDGRDMIIIRMPKDFPPFPQKLKFREPQREERICLVTTNFQTKSMSSMVSDTSCTFPSGAGIFWKHWIQTKDGQCGSPLVSTRDGFIVGIHSASNFTNTNNYFTSVPKNFMELLTNQEAQQWVSGWRLNADSVLWGGHKVFMVKPEEPFQPVKEATQL [D137A] | 0.101 | 0.105 |  |  |  |  |  | 0.0675 | 0.0923 | 
8 | MGESLFKGPRDYNPISSSICHLTNESDGHTTSLYGIGFGPFIITNKHLFRRNNGTLVVQSLHGVFKVKDTTTLQQHLVDGRDMIIIRMPKDFPPFPQKLKFREPQREERICLVTTNFQTKSMSSMVSDTSCTFPSGQGIFWKHWIQTKDGQCGSPLVSTRDGFIVGIHSASNFTNTNNYFTSVPKNFMELLTNQEAQQWVSGWRLNADSVLWGGHKVFMVKPEEPFQPVKEATQL [D137Q] | 0.0878 |  |  | 0.0652 | 0.0703 |  | 0.047 | 0.0467 | 0.0986 | 
9 | MGESLFKGPRDYNPISSSICHLTNESDGHTTSLYGIGFGPFIITNKHLFRRNNGTLVVQSLHGVFKVKDTTTLQQHLVDGRDMIIIRMPKDFPPFPQKLKFREPQREERICLVTTNFQTKSMSSMVSDTSCTFPSGTGIFWKHWIQTKDGQCGSPLVSTRDGFIVGIHSASNFTNTNNYFTSVPKNFMELLTNQEAQQWVSGWRLNADSVLWGGHKVFMVKPEEPFQPVKEATQL [D137T] | 0.117 | 0.0695 |  |  |  |  | 0.0447 |  | 0.106 | 0.0631
10 | MGESLFKGPRDYNPISSSICHLTNESDGHTTSLYGIGFGPFIITNKHLFRRNNGTLVVQSLHGVFKVKDTTTLQQHLVDGRDMIIIRMPKDFPPFPQKLKFREPQREERICLVTTNFQTKSMSSMVSDTSCTFPSGDFIFWKHWIQTKDGQCGSPLVSTRDGFIVGIHSASNFTNTNNYFTSVPKNFMELLTNQEAQQWVSGWRLNADSVLWGGHKVFMVKPEEPFQPVKEATQL [G138F] | 0.0851 |  | 0.0547 |  |  |  |  |  | 0.106 | 
11 | MGESLFKGPRDYNPISSSICHLTNESDGHTTSLYGIGFGPFIITNKHLFRRNNGTLVVQSLHGVFKVKDTTTLQQHLVDGRDMIIIRMPKDFPPFPQKLKFREPQREERICLVTTNFQTKSMSSMVSDTSCTFPSGDMIFWKHWIQTKDGQCGSPLVSTRDGFIVGIHSASNFTNTNNYFTSVPKNFMELLTNQEAQQWVSGWRLNADSVLWGGHKVFMVKPEEPFQPVKEATQL [G138M] | 0.0757 | 0.0747 |  |  |  | 0.0673 |  |  | 0.0929 | 

Same assay, conditions: temperature: 34 °C; time window: 0-4 h after rhamnose induction

Row | Variant | area with substrate ENLYFQW | area with substrate ENLYFQY | area with substrate ENLYFQN | area with substrate ENLYFQL | area with substrate ENLYFQV | area with substrate ENLYFQD | area with substrate ENLYFQG | area with substrate ENLYFQF | area with substrate ENLYFQI | area with substrate ENLYFQQ
12 | MGESLFKGPRDYNPISSSICHLTNESDGHTTSLYGIGFGPFIITNKHLFRRNNGTLVVQSLHGVFKVKDTTTLQQHLVDGRDMIIIRMPKDFPPFPQKLKFREPQREERICLVTTNFQAKSMSSMVSDTSCTFPSGDGIFWKHWIQTKDGQCGSPLVSTRDGFIVGIHSASNFTNTNNYFTSVPKNFMELLTNQEAQQWVSGWRLNADSVLWGGHKVFMVKPEEPFQPVKEATQL [T119A] | 0.0735 | 0.0847 |  |  |  |  |  |  |  | 
13 | MGESLFKGPRDYNPISSSICHLTNESDGHTTSLYGIGFGPFIITNKHLFRRNNGTLVVQSLHGVFKVKDTTTLQQHLVDGRDMIIIRMPKDFPPFPQKLKFREPQREERICLVTTNFQSKSMSSMVSDTSCTFPSGDGIFWKHWIQTKDGQCGSPLVSTRDGFIVGIHSASNFTNTNNYFTSVPKNFMELLTNQEAQQWVSGWRLNADSVLWGGHKVFMVKPEEPFQPVKEATQL [T119S] |  |  | 0.0652 |  |  |  |  |  |  | 
14 | MGESLFKGPRDYNPISSSICHLTNESDGHTTSLYGIGFGPFIITNKHLFRRNNGTLVVQSLHGVFKVKDTTTLQQHLVDGRDMIIIRMPKDFPPFPQKLKFREPQREERICLVTTNFQTKSMSSMVSDKSCTFPSGDGIFWKHWIQTKDGQCGSPLVSTRDGFIVGIHSASNFTNTNNYFTSVPKNFMELLTNQEAQQWVSGWRLNADSVLWGGHKVFMVKPEEPFQPVKEATQL [T129K] |  |  | 0.0698 | 0.0586 | 0.0604 |  |  |  |  | 
15 | MGESLFKGPRDYNPISSSICHLTNESDGHTTSLYGIGFGPFIITNKHLFRRNNGTLVVQSLHGVFKVKDTTTLQQHLVDGRDMIIIRMPKDFPPFPQKLKFREPQREERICLVTTNFQTKSMSSMVSDTSCTFRSGDGIFWKHWIQTKDGQCGSPLVSTRDGFIVGIHSASNFTNTNNYFTSVPKNFMELLTNQEAQQWVSGWRLNADSVLWGGHKVFMVKPEEPFQPVKEATQL [P134R] |  | 0.0961 | 0.0654 | 0.0702 |  | 0.0355 | 0.0778 |  |  | 
16 | MGESLFKGPRDYNPISSSICHLTNESDGHTTSLYGIGFGPFIITNKHLFRRNNGTLVVQSLHGVFKVKDTTTLQQHLVDGRDMIIIRMPKDFPPFPQKLKFREPQREERICLVTTNFQTKSMSSMVSDTSCTFPHGDGIFWKHWIQTKDGQCGSPLVSTRDGFIVGIHSASNFTNTNNYFTSVPKNFMELLTNQEAQQWVSGWRLNADSVLWGGHKVFMVKPEEPFQPVKEATQL [S135H] |  | 0.0492 | 0.0705 | 0.0636 |  | 0.064 |  | 0.05 | 0.0686 | 
17 | MGESLFKGPRDYNPISSSICHLTNESDGHTTSLYGIGFGPFIITNKHLFRRNNGTLVVQSLHGVFKVKDTTTLQQHLVDGRDMIIIRMPKDFPPFPQKLKFREPQREERICLVTTNFQTKSMSSMVSDTSCTFPSGAGIFWKHWIQTKDGQCGSPLVSTRDGFIVGIHSASNFTNTNNYFTSVPKNFMELLTNQEAQQWVSGWRLNADSVLWGGHKVFMVKPEEPFQPVKEATQL [D137A] | 0.0577 | 0.0693 | 0.0809 |  |  | 0.0662 | 0.0844 |  | 0.057 | 
18 | MGESLFKGPRDYNPISSSICHLTNESDGHTTSLYGIGFGPFIITNKHLFRRNNGTLVVQSLHGVFKVKDTTTLQQHLVDGRDMIIIRMPKDFPPFPQKLKFREPQREERICLVTTNFQTKSMSSMVSDTSCTFPSGQGIFWKHWIQTKDGQCGSPLVSTRDGFIVGIHSASNFTNTNNYFTSVPKNFMELLTNQEAQQWVSGWRLNADSVLWGGHKVFMVKPEEPFQPVKEATQL [D137Q] | 0.0563 |  | 0.0775 |  |  | 0.0905 | 0.114 |  | 0.0677 | 0.0704
19 | MGESLFKGPRDYNPISSSICHLTNESDGHTTSLYGIGFGPFIITNKHLFRRNNGTLVVQSLHGVFKVKDTTTLQQHLVDGRDMIIIRMPKDFPPFPQKLKFREPQREERICLVTTNFQTKSMSSMVSDTSCTFPSGDFIFWKHWIQTKDGQCGSPLVSTRDGFIVGIHSASNFTNTNNYFTSVPKNFMELLTNQEAQQWVSGWRLNADSVLWGGHKVFMVKPEEPFQPVKEATQL [G138F] | 0.0476 |  |  | 0.0085 |  |  |  |  |  | 
20 | MGESLFKGPRDYNPISSSICHLTNESDGHTTSLYGIGFGPFIITNKHLFRRNNGTLVVQSLHGVFKVKDTTTLQQHLVDGRDMIIIRMPKDFPPFPQKLKFREPQREERICLVTTNFQTKSMSSMVSDTSCTFPSGDMIFWKHWIQTKDGQCGSPLVSTRDGFIVGIHSASNFTNTNNYFTSVPKNFMELLTNQEAQQWVSGWRLNADSVLWGGHKVFMVKPEEPFQPVKEATQL [G138M] |  |  |  |  |  |  |  |  | 0.0632 | 
